# From PMC4336329 (PLoS ONE, 2015)
# Among all 310,000 compounds or so, about 2,200 (0.71%) showed an effect of 50% or more. Effects have a minus sign here. The list shows a part of the results.
# Target: human ether-à-go-go-related gene (hERG) potassium channel (human, UniProt Q12809)
# Test: primary screen, population patch clamp on CHO cells stably expressing hERG
# Chain of human ether-à-go-go-related gene (hERG) potassium channel (Q12809 whole entry, looked up): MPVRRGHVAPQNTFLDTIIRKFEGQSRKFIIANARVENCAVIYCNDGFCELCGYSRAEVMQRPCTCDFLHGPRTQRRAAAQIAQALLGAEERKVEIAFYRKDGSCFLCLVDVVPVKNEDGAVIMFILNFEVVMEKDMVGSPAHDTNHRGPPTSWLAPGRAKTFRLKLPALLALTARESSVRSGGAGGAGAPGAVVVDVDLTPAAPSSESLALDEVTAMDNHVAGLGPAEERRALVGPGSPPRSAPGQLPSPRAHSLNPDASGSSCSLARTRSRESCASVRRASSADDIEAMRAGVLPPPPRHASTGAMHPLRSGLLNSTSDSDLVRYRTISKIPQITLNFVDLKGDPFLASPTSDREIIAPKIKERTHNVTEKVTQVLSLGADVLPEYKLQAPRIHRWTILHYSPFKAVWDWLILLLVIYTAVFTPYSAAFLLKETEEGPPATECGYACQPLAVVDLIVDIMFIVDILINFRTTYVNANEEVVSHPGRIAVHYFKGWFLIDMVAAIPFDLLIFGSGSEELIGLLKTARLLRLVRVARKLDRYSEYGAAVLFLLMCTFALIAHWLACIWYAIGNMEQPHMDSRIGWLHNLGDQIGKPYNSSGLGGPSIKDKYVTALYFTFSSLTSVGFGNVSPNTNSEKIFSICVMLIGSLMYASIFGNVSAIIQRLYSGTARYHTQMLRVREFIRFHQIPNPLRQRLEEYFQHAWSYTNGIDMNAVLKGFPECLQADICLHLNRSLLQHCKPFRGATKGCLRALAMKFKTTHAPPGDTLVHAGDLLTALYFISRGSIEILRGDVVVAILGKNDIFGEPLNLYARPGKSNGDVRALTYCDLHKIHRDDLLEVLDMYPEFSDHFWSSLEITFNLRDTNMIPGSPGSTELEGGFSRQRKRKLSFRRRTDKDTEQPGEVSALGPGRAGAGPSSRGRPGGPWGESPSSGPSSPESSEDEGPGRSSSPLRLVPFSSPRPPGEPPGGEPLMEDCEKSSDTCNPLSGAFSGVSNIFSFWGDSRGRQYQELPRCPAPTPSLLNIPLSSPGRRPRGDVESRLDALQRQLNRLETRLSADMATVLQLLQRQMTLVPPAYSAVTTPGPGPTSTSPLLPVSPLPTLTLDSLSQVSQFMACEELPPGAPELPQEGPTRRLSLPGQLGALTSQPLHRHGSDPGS
row,Structure (SMILES),"hERG current change (%, negative = inhibition) at 1uM [%]"
1,O=C(CCCN1C(=O)c2cccc3cccc(c23)C1=O)Nc1nccs1,3.95
2,O=C(Nc1cc([N+](=O)[O-])ccc1F)c1ccc2c(c1)OCCO2,12.7
3,CN1CCN(c2ccc(S(C)(=O)=O)cc2[N+](=O)[O-])CC1,1.9
4,COc1ccc(NC(=O)CN(C)C(=O)CCc2nc3cc(S(=O)(=O)N4CCOCC4)ccc3n2C)cc1,2.42
5,COc1ccc(C)cc1NC(=O)C12CCC(C)(C(=O)O1)C2(C)C (centres unmarked),13.4
6,CC(=O)Cc1nsc(NC(=O)c2ccccc2Cl)n1,17.7
7,Cc1nnsc1C(=O)NC(C)c1ccccc1 (centres unmarked),15.7
8,O=C(NC12CC3CC(CC(C3)C1)C2)c1cncc(Br)c1,7.72
9,O=C(O)c1ccc2c(c1)OCCOCCOCCOCCOCCO2,-12.4
10,N#CC1=C(N)Oc2cc(N)ccc2C1c1ccccc1F (centres unmarked),9.19
11,Cc1nc2ccccc2c(=O)n1-n1cnnc1,5.37
12,O=c1oc(/C=C/c2ccc([N+](=O)[O-])s2)nc2ccccc12,15.7
13,CCOc1ccc(-n2c(=O)c3sccc3n(CC(=O)NCCc3ccc(OC)c(OC)c3)c2=O)cc1,3.3
14,COc1ccc(NC(=O)C(=O)NCCC2=CCCCC2)c(OC)c1,8.27
15,COc1ccccc1C(=O)NNC(=O)c1nn(Cc2ccccc2)c(=O)c2ccccc12,-2.4
16,Cn1nnnc1P(=O)(c1ccccc1)c1ccccc1,12.4
17,Cc1cc(NC(=O)CN2CCN(c3ccccn3)CC2)ccc1Br,9.16
18,O=C(CNC(=O)/C(=C\c1ccc(Br)cc1)NC(=O)c1ccccc1)OCc1ccccc1,-48
19,COC(=O)/C(=N\OCc1ccc(C#N)cc1)c1c(C)nn(C)c1C,8.46
20,CCCCSc1cc(=O)n(-c2ccccc2)nc1C(=O)OCC,10.9
21,CCC(=O)N1CN(S(=O)(=O)c2ccc(C)cc2)CC1C (centres unmarked),8.05
22,Cc1ccc(S(=O)(=O)CC(=O)Nc2ccc(S(=O)(=O)Nc3ccccn3)cc2)cc1,13.7
23,Cc1ccc(S(=O)(=O)NCc2ccccc2)cc1C(=O)N1CCCCC1,-1.44

row,Structure (SMILES),"hERG current change (%, negative = inhibition) at 1uM [%]"
1,O=C(CNc1ccccc1)N/N=C/c1ccc([N+](=O)[O-])o1,-5.9
2,COC(=O)CNC(=O)c1ccccc1[N+](=O)[O-],5.21
3,CC(C)n1c(Nn2cnnc2)nc2ccccc21,-6.85
4,COC(=O)CCN(C1CCCCC1)S(=O)(=O)c1ccc(S(=O)(=O)N2CCCCC2)cc1,2.57
5,C=CCOC(=O)C1=C(C)NC(C)=C(C(=O)OCC=C)C1/C=C/c1ccccc1,2.33
6,O=C(CNC(c1ccccc1)c1ccccc1)Nc1ccccc1-c1ccccc1,6.37
7,O=C(NCc1ccco1)/C(=C/c1ccco1)NC(=O)c1ccc(Br)o1,-0.37
8,CCc1nnc(NS(=O)(=O)c2ccc(NC(=O)CCC(=O)OC)cc2)s1,6.42
9,COc1ccc(CNC(=O)CSc2nc3ccc(C)cc3[nH]2)cc1,8.37
10,CCOC(=O)c1nc(NNC(=O)c2ccc([N+](=O)[O-])cc2)sc1C,5.59
11,COc1cc2cc(CN(Cc3cccs3)C(=S)Nc3cccc(C)c3)c(=O)[nH]c2cc1OC,2.12
12,COC(=O)c1[nH]c2ccccc2c1CN1CCOCC1,9.36
13,Cc1ccc(CNC(=O)NC2CCCCC2)cc1,18.3
14,O=C1c2ccccc2NC(c2ccccc2)N1/N=C/c1ccccc1 (centres unmarked),9.26
15,O=C(c1ccc2c(=O)n(Cc3ccc4c(c3)OCO4)c(=S)[nH]c2c1)N1CCCCC1,-0.608
16,CC1CCCCN1C(=O)CCC(=O)Nc1nnc(C(F)(F)F)s1 (centres unmarked),20.4
17,COCCOc1cc(N2C(=O)CSCC2=O)c(Cl)cc1Cl,-8.18
18,COc1ccc(C(=O)C[n+]2ccc3ccccc3c2C)cc1.[Br-],7.98
19,C=CCc1c(C)[nH]c(=S)c(C#N)c1C,10.4
20,CC1CC=C(c2ccccc2)C(=S)N1 (centres unmarked),8.88
21,CCOC(=O)C1=C(C)Nc2ccccc2N=C1NC(=O)Cc1ccc(Cl)c(Cl)c1,-2.66
22,N/C(=N/OCc1cccc([N+](=O)[O-])c1)c1nonc1N,4.47
23,O=C(Nn1cnnc1)c1cc([N+](=O)[O-])cc([N+](=O)[O-])c1,5.11

row,Structure (SMILES),"hERG current change (%, negative = inhibition) at 1uM [%]"
1,CCC(c1nnnn1CCOC)N(Cc1ccc(C)cc1)Cc1cc2cc(OC)ccc2[nH]c1=O (centres unmarked),9.8
2,O=C(Nc1ccc(S(=O)(=O)Nc2nccs2)cc1)c1ccc(N2C(=O)c3ccccc3C2=O)cc1,13.6
3,Cc1cccc(C)c1NC(=O)CN1C(=O)CCSc2ccc(S(=O)(=O)N3CCCC3)cc21,14.4
4,COc1cc(NC(=O)C/C(C)=N/NC(=O)C(=O)NCCO)c(OC)cc1Cl,14.4
5,CCN=C1SC(CC(=O)Nc2sc(C)c(C)c2C(=O)OC)C(=O)N1CC (centres unmarked),12
6,CC(=O)N1c2ccc(S(=O)(=O)NCCC(=O)NC3CCCC(C)C3C)cc2CC1C (centres unmarked),7.51
7,CS(=O)(=O)c1ccc2nc(NC(=O)Nc3ccc(Cl)cc3)sc2c1,3.06
8,CCCCc1cc(=O)oc2cc(OCC(=O)N3C[C@H]4C[C@@H](C3)c3cccc(=O)n3C4)c(Cl)cc12,-19.8
9,CN1CCN(c2cc(N3CCNCC3)ccc2[N+](=O)[O-])CC1,9.91
10,O=C(CN1CCN(c2ccccc2O)CC1)Nc1cccnc1Cl,5.97
11,CC(C(N)=O)N1C(=O)NC2(CCCc3ccccc32)C1=O (centres unmarked),16.4
12,CC(=O)NC12CC3CC(C1)CC(C(=O)N1CCN(S(=O)(=O)c4ccccc4[N+](=O)[O-])CC1)(C3)C2,3.99
13,O=C(CN1C(=O)COc2ccccc21)NCC1CCCO1 (centres unmarked),-1.08
14,CCCCN(C)C(=O)c1cn(-c2cccc(OC)c2)c(=O)c2ccccc12,6.07
15,O=C(NCCc1ccc(F)cc1)C(=O)NCC1CCCN1S(=O)(=O)c1cccs1 (centres unmarked),-13.7
16,CN(Cc1ccccc1)S(=O)(=O)c1ccc(Cl)nc1,-0.0446
17,NNc1nc2cc3c(cc2s1)OCCO3,14.4
18,Cc1ccc(NC(=O)c2cc(S(=O)(=O)N3CCCCC3)c[nH]2)cc1C,15.9
19,O=C(OCCC1Oc2cccnc2NC1=O)c1ccc([N+](=O)[O-])cc1 (centres unmarked),10
20,CCOc1ccc(CCNC(=O)c2cnccn2)cc1OCC,13.3
21,CN(NS(=O)(=O)c1cccs1)c1ncc(C(F)(F)F)cc1Cl,9.96
22,CCOC(=O)N1CCN(CC(=O)N2c3ccccc3CC2C)CC1.O=C(O)C(=O)O (centres unmarked),13.6
23,NC(=O)c1ccc(N2CCN(c3ccccc3F)CC2)c([N+](=O)[O-])c1,1.62

row,Structure (SMILES),"hERG current change (%, negative = inhibition) at 1uM [%]"
1,O=C(NC(=O)c1ccccc1)NC1(C(F)(F)F)OCCO1,4.71
2,CCOC(=O)Cn1nc(C)c2c1CCCC2=O,4.27
3,CC(=O)Nc1c(C)ccc(CNC(=O)COc2cc(C)ccc2C)c1C,2.39
4,O=C(NNC(=O)c1ccc(Br)s1)NC1CCCCC1,22.3
5,Cc1ccc(C2NC(c3ccc(C)cc3)C(C)C(=O)C2C)cc1 (centres unmarked),6.61
6,Cc1ccc2nc(SCC(=O)Nc3ccc(C)c(Cl)c3)nc(=O)n2c1,-9.4
7,COc1cccc2cc(-c3csc(NC(=O)CCC(=O)NCCCN4CCC(C)CC4)n3)c(=O)oc12,3.15
8,COC(=O)C1=C(C)Nc2c(c(=O)n(C)c(=O)n2C)C1c1ccc(Cl)cc1 (centres unmarked),-5.21
9,COc1cc(OC)cc(C(=O)NCC(=O)OCc2nc3ccccc3s2)c1,12.5
10,CCOC(=O)C1=C(COC(=O)Cc2ccc(OC)c(OC)c2)NC(=O)NC1C (centres unmarked),6.7
11,COc1ccc2c(c1)C(=O)N(c1ccc(C)cc1C)C(=O)C2,12.7
12,CCOc1cc(C2C(C#N)=C(N)Oc3n[nH]c(CC)c32)ccc1OCCN1CCOCC1 (centres unmarked),8.96
13,CCOC(=O)c1c(C)c[nH]c1C,15.3
14,CSc1nsc2nc(=O)c(/C=C3\C=Nc4ccccc43)c(N)n12,5.08
15,Cc1ccc(C2NS(=O)(=O)N=C2N)cc1 (centres unmarked),-2.29
16,COc1ccc(NC(=O)CN2C(=O)C(C)SC(C)C2=O)c(OC)c1 (centres unmarked),7.69
17,CCNc1nc(NC(C)(C)C)nc(N2CCCC2)n1,2.82
18,COc1ccc(OC)c(NC(=O)c2cccc(NC(=O)c3ccccc3C(=O)O)c2)c1,11.1
19,Brc1ccc(CNc2ccc3ncccc3c2)cc1,12.9
20,O=C1O[C@@H]([C@H](O)CO)C(O)=C1O,9.37
